The shares of active, inactive and inconclusive entries below differ from those in the screen. For part of these data: A potency beside an inconclusive call is a rough fit, not a confirmed value. Some structures have more than one record in an assay (separate samples or runs), and their calls can disagree. The source made the active and inactive calls. Calls follow the shape of the dose curve; as a rule, active = well fitted curve in the direction sought with a large enough effect; inconclusive = small, poorly fitted or top-dose-only effect, or another doubt; inactive = no such curve, though single readings can be large; an effect the other way counts as inactive or inconclusive.
How the values were obtained:
MCC-13 = assay: qHTS assay to identify novel small-molecules to repurpose for Merkel cell carcinoma treatment (AID 1296009); details: MCC and control cell lines, CellTiter-Glo viability, 72 h; series mostly up to 46 µM; also: nearly all actives have a fitted effect of over 60% in size
Procedure, shortened: (§1)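 Viability readout: ATP luminescence (CellTiter-Glo) after 72 hr drug exposure at 37 degree celsius. Dose-response format was 8 points for NPC and 11 points for MIPE; data normalized to in-plate controls.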

MCC-26 = assay: as above; details: MCC and control cell lines, CellTiter-Glo viability, 72 h; series mostly up to 46 µM
Procedure, shortened: as §1

MKL-2 = assay: as above; details: MCC and control cell lines, CellTiter-Glo viability, 72 h; series mostly up to 46 µM
Procedure, shortened: as §1

WaGa = assay: as above; details: MCC and control cell lines, CellTiter-Glo viability, 72 h; series mostly up to 46 µM
Procedure, shortened: as §1

C33A = assay: Primary qHTS to identify gynecologic anti-cancer compounds using libraries of approved drugs and bioactive compounds (AID 1345084); details: Gynecologic cancer cell panel viability, ATPlite luminescence, 48 h; series mostly up to 57.5 µM; also: nearly all actives have a fitted effect of over 55% in size
Procedure, shortened: (§2)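 Cells, 1,000 per well, plated 16 h, then exposed 48 h at 37 C to compounds. Viability by ATPlite luminescence after 15 min at room temperature.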

CAOV3 = assay: as above; details: Gynecologic cancer cell panel viability, ATPlite luminescence, 48 h; series mostly up to 57.5 µM
Procedure, shortened: as §2

CASKI = assay: as above; details: Gynecologic cancer cell panel viability, ATPlite luminescence, 48 h; series mostly up to 57.5 µM
Procedure, shortened: as §2

Hek293T = assay: as above; details: Gynecologic cancer cell panel viability, ATPlite luminescence, 48 h, control line for the selectivity index; series mostly up to 57.5 µM
Procedure, shortened: as §2

UISO = assay: qHTS assay to identify novel small-molecules to repurpose for Merkel cell carcinoma treatment (AID 1296009); details: MCC and control cell lines, CellTiter-Glo viability, 72 h; activity change, negative = cytotoxicity: at 46 µM (top of the series) unless noted; also: nearly all actives have a fitted effect of over 60% in size
Procedure, shortened: as §1

PC49 = assay: qHTS profiling for inhibitors of Plasmodium falciparum proliferation (AID 504749); also: nearly all actives have a fitted effect of over 60% in size; details: P. falciparum in erythrocytes, SYBR Green DNA, 72 h; series mostly up to 28.7 µM
Procedure, shortened: (§3)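 Quantitative HTS: compounds pinned into medium, infected erythrocytes added (0.3% parasitemia, 2.5% hematocrit), 72 h culture at 37 C under 5% CO2. Saponin/Triton lysis with SYBR Green I, overnight RT, then fluorescence read.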

TAB109 = assay: as above; details: P. falciparum in erythrocytes, SYBR Green DNA, 72 h; series mostly up to 28.7 µM
Procedure, shortened: as §3

TAB113 = assay: as above; details: P. falciparum in erythrocytes, SYBR Green DNA, 72 h; series mostly up to 28.7 µM
Procedure, shortened: as §3

TAB165 = assay: as above; details: P. falciparum in erythrocytes, SYBR Green DNA, 72 h; series mostly up to 28.7 µM
Procedure, shortened: as §3

MKL-1 = assay: qHTS assay to identify novel small-molecules to repurpose for Merkel cell carcinoma treatment (AID 1296009); details: MCC and control cell lines, CellTiter-Glo viability, 72 h; activity change, negative = cytotoxicity: at 46 µM (top of the series) unless noted; also: nearly all actives have a fitted effect of over 60% in size
Procedure, shortened: as §1

OV90 = assay: Primary qHTS to identify gynecologic anti-cancer compounds using libraries of approved drugs and bioactive compounds (AID 1345084); details: Gynecologic cancer cell panel viability, ATPlite luminescence, 48 h; series mostly up to 57.5 µM; also: nearly all actives have a fitted effect of over 55% in size
Procedure, shortened: as §2

Es-2 = assay: as above; details: Gynecologic cancer cell panel viability, ATPlite luminescence, 48 h; series mostly up to 57.5 µM
Procedure, shortened: as §2

HeLa = assay: as above; details: Gynecologic cancer cell panel viability, ATPlite luminescence, 48 h; series mostly up to 57.5 µM
Procedure, shortened: as §2

Measured: Potency
Potency is read from the fitted curve at half-maximal effect; tags tell the direction and shape of the fitted curve.

Oc1cccc2cccnc12
inconclusive: MCC-13 = 43.3 µM [inhibitor, single point] | C33A 63.1 µM [cytotoxic, single point] | CAOV3 = 39.8 µM [rising, partial curve, poor fit] | CASKI 35.5 µM [cytotoxic, single point] | Hek293T 39.8 µM [cytotoxic, single point]
active: MCC-26 = 21.7 µM | MKL-2 = 4.86 µM | WaGa 38.6 µM

Cc1sc2c(c1C)C(c1ccc(Cl)cc1)=N[C@@H](CC(=O)OC(C)(C)C)c1nnc(C)n1-2
inconclusive: MCC-13 = 1.48 µM [inhibitor, full curve] | MCC-26 = 1.66 µM [inhibitor, full curve] | UISO 1.18 µM [inhibitor, full curve]

CO[C@H]1CCC(O[C@H]2C[C@H]([C@]3(C)CC[C@]4(C[C@H](O)[C@@H](C)[C@@H]([C@@H](C)C=C(C)C(=O)[C@H](C)C[C@H](C)C(=O)O)O4)O3)O[C@]3(O[C@@H]([C@H]4O[C@@](O)(CO)[C@H](C)C[C@H]4C)C[C@H]3C)[C@H]2C)O[C@H]1C (some centres undefined)
inconclusive: MCC-13 = 1.87 µM [inhibitor, full curve]

Clc1ccc(CO/N=C(\Cn2ccnc2)c2ccc(Cl)cc2Cl)c(Cl)c1
active: TAB109 = 3.55 µM | TAB113 = 2.51 µM | TAB165 = 1.41 µM
inconclusive: PC49 = 10 µM [inhibitor, single point] | MCC-13 = 23.7 µM [inhibitor, single point] | MKL-1 = 23.7 µM [inhibitor, single point] | MKL-2 = 18.8 µM [inhibitor, single point] | UISO 29.9 µM [inhibitor, single point] | WaGa 26.6 µM [inhibitor, single point] | OV90 = 28.2 µM [cytotoxic, single point]

COc1cc([C@@H]2c3cc4c(cc3[C@@H](O)C3COC(=O)C32)OCO4)cc(OC)c1O (some centres undefined)
active: MKL-1 = 2.35 µM | UISO 0.0526 µM
inconclusive: MCC-13 = 0.209 µM [inhibitor, full curve] | MCC-26 = 0.264 µM [inhibitor, full curve] | MKL-2 = 0.418 µM [inhibitor, full curve, poor fit]

CC(C)(O)C=CC(=O)[C@](C)(O)[C@H]1[C@H](O)C[C@]2(C)[C@@H]3CC=C4[C@@H](C=C(O)C(=O)C4(C)C)[C@]3(C)C(=O)C[C@@]12C
inconclusive: MCC-26 = 0.526 µM [inhibitor, full curve]
active: MCC-13 = 0.264 µM | MKL-1 = 0.0662 µM | UISO 0.166 µM

CCCN(CCC)c1c([N+](=O)[O-])cc(S(N)(=O)=O)cc1[N+](=O)[O-]
inconclusive: MCC-26 = 61.1 µM [inhibitor, single point] | WaGa 68.6 µM [inhibitor, partial curve, poor fit] | CAOV3 = 31.6 µM [cytotoxic, single point] | CASKI 35.5 µM [cytotoxic, single point] | Es-2 = 63.1 µM [cytotoxic, single point] | HeLa 89.1 µM [cytotoxic, single point] | Hek293T 39.8 µM [cytotoxic, single point] | OV90 = 39.8 µM [cytotoxic, single point]
active: MCC-13 = 24.3 µM | MKL-2 = 21.7 µM | UISO 21.7 µM | C33A 35.5 µM

Clc1ccc(C(OCCN2CCCCC2)c2ccccc2)cc1 (centres undefined)
inconclusive: WaGa 33.5 µM [inhibitor, single point] | CAOV3 = 10 µM [cytotoxic, partial curve, poor fit] | OV90 = 25.1 µM [cytotoxic, single point]
inactive: MCC-13

Oc1ccc(Cl)cc1
inactive: MCC-13 | MKL-1 | UISO | C33A

C[C@@H]1[C@@H](C(=O)C[C@H]2O[C@@H]3O[C@]4(C)CC[C@@H]5[C@H](C)CC[C@@H]([C@H]2C)[C@@]35OO4)O[C@@H]2O[C@]3(C)CC[C@H]4[C@H](C)CC[C@@H]1[C@@]24OO3
active: UISO 0.372 µM | WaGa 2.64 µM
inconclusive: MCC-13 = 7.43 µM [inhibitor, full curve]

Source: PubChem BioAssay (NCATS)
